Results reported in PubChem BioAssay AID2675 (National Center for Advancing Translational Sciences (NCATS), 2010).
Screen size: about 280,000 compounds; about 100 (0.036%) were called active. The shares of active, inactive and inconclusive entries below differ from those in the screen. Calls follow the shape of the dose curve; as a rule, active = well fitted inhibition curve with a large enough effect in the signal ratio, with a control signal flat (not every such curve was filed as active); inconclusive = small, poorly fitted or top-dose-only effect, or effect the other way, or a change in a side signal; inactive = no such curve, though single readings can be large or run the other way; the % refers to the signal ratio. Potencies beside an inconclusive call are fits to weak or partial responses and may not hold up. A note “side channel” means that the fit belongs to a control or component signal, not to the main read-out.

Biological target: Muscleblind-like protein 1 (Homo sapiens) (UniProt Q9NR56)
Sequence of UniProt Q9NR56 (Q9NR56 whole entry, looked up): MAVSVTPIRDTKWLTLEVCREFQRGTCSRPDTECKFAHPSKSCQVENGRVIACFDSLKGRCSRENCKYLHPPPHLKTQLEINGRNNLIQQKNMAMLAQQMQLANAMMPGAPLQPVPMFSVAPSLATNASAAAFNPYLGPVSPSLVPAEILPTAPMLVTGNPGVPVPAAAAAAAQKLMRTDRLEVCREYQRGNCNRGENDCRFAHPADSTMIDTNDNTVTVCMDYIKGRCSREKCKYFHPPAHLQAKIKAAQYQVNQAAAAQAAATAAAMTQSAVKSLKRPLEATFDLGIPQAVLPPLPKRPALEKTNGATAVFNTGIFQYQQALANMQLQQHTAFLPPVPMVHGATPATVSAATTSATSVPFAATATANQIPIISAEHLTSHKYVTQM
Experiment: qHTS Assay for Inhibitors of MBNL1-poly(CUG) RNA binding
Settings: TR-FRET MBNL1-His/biotin-(CUG)12 binding, 665/545 ratio; activity change, negative = inhibition: at 57.5 µM (top of the series)
From the text: NIH Chemical Genomics Center [NCGC] NIH Molecular Libraries Probe Production Centers Network [MLPCN] MLPCN Grant: R03 MH087421-01 Assay Submitter (PI): Charles Thornton NCGC Assay Overview: Expanded CTG repeats in the 3' untranslated region of the DM protein kinase (DMPK) gene causes type I myotonic dystrophy (DM1). DM1 is a multi-systemic disease with a prevalence of 1/7000. Clinical features include myotonia, progressive muscle weakness and wasting, cardiac arrhythmia, insulin resistance, hypersomnolence, cataracts, and other symptoms. The pathogenic effect of expanded CTG repeats stems from deleterious effects of the mutant transcript. CUGexp mRNA accumulates in nuclear foci and sequesters proteins of the muscleblind family, of which MBNL1 is the most common family member in skeletal muscles. The binding interaction between MBNL1 and CUGexp tracts leads to deregulation of alternative splicing and is therefore a key molecular step in the pathogenesis of DM1. To target this binding interaction, we optimized a protein-RNA binding assay in 1536-well format for identification of small molecule inhibitors of biotinylated (CUG)12 and his-tagged MBNL1 binding. Protein-RNA complex of MBNL1-His and Biotin-(CUG)12 captures the detection reagents terbium-labeled anti-His antibody and streptavidin conjugated XL665. This brings the terbium label within close proximity to XL665 to allow time-resolved fluorescence resonance energy transfer (TR-FRET). Inhibitors of MBNL1-(CUG)12 binding will disrupt TR-FRET.
NCGC Assay Protocol Summary: This is a TR-FRET binding assay with MBNL1-His and Biotin-(CUG)12 RNA. The assay uses a ratiometric measurement. In the presence of MBNL1-(CUG)12 complex, the excitation energy is transferred to the XL665 acceptor label, causing emission at 665nm, while the 545nm donor signal […]. Data were normalized to the controls for basal activity (buffer only) and 100% activity (with MBNL1-(CUG)12). […] The final titration was 92 nM to 58 uM. (3) Add 1 ul of terbium labeled anti-His antibody (0.055 ng/ul final concentration) (4) Add 1 ul of streptavidin-XL665 (5 nM final concentration) (5) Incubate 60 min at room temperature (6) Detect the assay plate in a EnVision plate reader (PerkinElmer) with Ex=340 nm, Em1=665 nm and Em2=545 nm. Keywords: mytonic dystrophy type I, DM1, muscleblind like 1, MBNL1, CUG expansion, protein-RNA binding inhibitor, high throughput screening, MLSMR, MLSCN, NIH Roadmap, qHTS and NCGC
% is scaled to controls: 0 for no effect and ±100 for the full control effect; potency is read from the fitted curve at half-maximal effect; tags tell the direction and shape of the fitted curve or compound fluorescence and quenching.

Row | Compound | Potency | activity change, negative = inhibition
1 | CC(C)(C)c1cc(Br)c(O)c(N=Nc2ccc(S(=O)(=O)N3CCOCC3)cc2)c1 | inconclusive: 28.2 µM [quencher, side channel, single point] | 
2 | CN1CCN(c2nc(-c3cccs3)cs2)CC1 | inconclusive: 25.1 µM [quencher, side channel, single point] | 
3 | COc1ccc(OCC(=O)N/N=C\c2ccco2)cc1 | inconclusive: 14.1 µM [quencher, side channel, partial curve] | 
4 | Cc1ccc(/C=N/NC(=O)Cc2cccs2)o1 | inconclusive: 10 µM [quencher, side channel, partial curve] | 
5 | COC(=O)CN1C(=O)N/C(=C/c2cc(OC)c(OC)cc2C)C1=O | inconclusive: 35.5 µM [quencher, side channel, partial curve] | 
6 | CCOC(=O)C1=C(SCC)c2cc3c(n2C1=O)CCCC3 | inconclusive: 11.2 µM [quencher, side channel, partial curve] | 
7 | COc1cc(NC(=O)CN(C)CCOc2ccccc2)c(C)cc1[N+](=O)[O-] | inconclusive: 28.2 µM [quencher, side channel, single point] | 
8 | O=C(C1=NNCC1c1ccccc1)C1OC1c1ccccc1 (centres undefined) |  | inactive: 21.4%
9 | O=C(NCc1ccco1)C(c1ccccc1)N(C(=O)Cc1cccs1)c1ccccc1 (centres undefined) | inconclusive: 79.4 µM [inhibitor, single point] | 
10 | COc1cc(/C=N/NC(=O)Cc2csc(N3CCOCC3)n2)cc(OC)c1O | inconclusive: 22.4 µM [quencher, side channel, single point] | 
11 | O=C1CSC(c2ccccc2)N1c1ccc([N+](=O)[O-])cc1 (centres undefined) | inconclusive: 15.8 µM [quencher, partial curve] | 
12 | Cc1ccccc1/C=C/C12NC(=O)CN1c1ccccc1C2(C)C (centres undefined) |  | inactive: 1.13%
13 | O=C(N/N=C/c1ccco1)c1[nH]ncc1Br | inconclusive: 20 µM [quencher, side channel, partial curve] | 
14 | O=C(NCc1ccco1)/C(=C/C=C/c1ccccc1)NC(=O)c1ccco1 | inconclusive: 28.2 µM [quencher, side channel, single point] | 
15 | CCCNC(=O)c1ccc2c(=O)c(O)c(-c3ccsc3)[nH]c2c1 | inconclusive: 28.2 µM [quencher, side channel, partial curve] | 
16 | O=[N+]([O-])c1cc(-c2ccc(/C=N\n3cnnc3)o2)cc([N+](=O)[O-])c1 | inconclusive: 5.62 µM [quencher, side channel, partial curve] | 
17 | Nc1nnc(CC(=O)N/N=C/c2ccc([N+](=O)[O-])cc2)s1 | inconclusive: 11.2 µM [quencher, side channel, partial curve] | 
18 | COc1ccc([N+](=O)[O-])cc1NC(=O)COC(=O)/C=C/c1ccco1 | inconclusive: 2.82 µM [quencher, side channel, full curve, poor fit] | 
19 | O=C(/C(=C(\O)c1ccccc1)c1nc2ccccc2[nH]1)c1ccccc1 |  | inactive: 5.07%
20 | CC(=O)c1sc2nc(-c3ccc(C)cc3)c3c(c2c1N)CCCC3 |  | inactive: 9.64%

Row | Compound | Potency | activity change, negative = inhibition
21 | Cc1c(Cl)cccc1NC(=O)COC(=O)c1c2c(nc3ccccc13)CCN(Cc1ccccc1)C2 | inconclusive: 20 µM [quencher, side channel, single point] | 
22 | COc1cc(/C=N/Nc2nc(=O)[nH]nc2C)cc([N+](=O)[O-])c1O | inconclusive: 14.1 µM [quencher, side channel, partial curve] | 
23 | CCOc1ccccc1N(CC(=O)Nc1ccc(S(=O)(=O)N2CCOCC2)cc1)S(=O)(=O)c1ccccc1 |  | inactive: -16.1%
24 | O=C(Oc1cccccc1=O)c1ccccc1 | inconclusive: 17.8 µM [quencher, side channel, partial curve] | 
25 | CSCCC(NC(=O)C1CCC(C)CC1)C(=O)OCC(=O)c1ccc(Cl)cc1 (centres undefined) | inconclusive: 8.91 µM [fluorescent, side channel, single point] | 
26 | O=C(c1cc([N+](=O)[O-])ccc1N1CCOCC1)N1CCCC1 | inconclusive: 31.6 µM [quencher, side channel, single point] | 
27 | O=Cc1sc(Nc2ccccc2)nc1Cl | inconclusive: 25.1 µM [quencher, side channel, partial curve] | 
28 | O=S1(=O)N=C(N2CCN(Cc3ccc4c(c3)OCO4)CC2)c2ccccc21 |  | inactive: -0.494%
29 | O=C(CCCC(=O)OCC(F)(F)C(F)F)Nc1ccc(NC(=O)CCCC(=O)OCC(F)(F)C(F)F)cc1 | inconclusive: 25.1 µM [quencher, side channel, single point] | 
30 | O=C1C(NS(=O)(=O)c2cccs2)=C(N2CCOCC2)C(=O)c2ccccc21 | inconclusive: 14.1 µM [quencher, partial curve] | 
31 | Cc1ccnc(Nc2nc3ccccc3o2)n1 | inconclusive: 8.91 µM [quencher, side channel, single point] | 
32 | CC1CCCCN1C/C=C/c1ccccc1[N+](=O)[O-] (centres undefined) | inconclusive: 15.8 µM [quencher, single point] | 
33 | c1ccn2cc(-c3ccc4c(c3)OCO4)cc2c1 | inconclusive: 11.2 µM [quencher, side channel, partial curve] | 
34 | c1ccc(-c2nc(NCc3cccnc3)c3ccccc3n2)cc1 |  | inactive: -16.4%
35 | O=C(c1ccc(S(=O)(=O)Cc2ccccc2Cl)c([N+](=O)[O-])c1)N1CCOCC1 | inconclusive: 15.8 µM [quencher, side channel, partial curve] | 
36 | Cc1cc(C)cc(CC(Cc2nc3ccccc3[nH]2)c2nc3ccccc3[nH]2)c1 (centres undefined) |  | inactive: -4.34%
37 | COc1c2ccccc2c(OC)c2ccccc12 | inconclusive: 17.8 µM [quencher, side channel, partial curve] | 
38 | CCC(=O)NC(=S)Nc1ccc(NC(=O)c2cc3ccccc3o2)c(OC)c1 |  | inactive: 6.06%
39 | Cc1onc(-c2ccccc2)c1C(=O)O/N=C(\N)c1ccc([N+](=O)[O-])o1 | inconclusive: 17.8 µM [quencher, side channel, partial curve] | 
